# Publication PMC4336329 (PLoS ONE, 2015)
# Out of some 310,000 compounds screened, about 2,200 (0.71%) showed an effect of 50% or more. Effects have a minus sign here. The list shows a part of the results.
# Target: human ether-à-go-go-related gene (hERG) potassium channel (human, UniProt Q12809)
# Experiment: primary screen, population patch clamp on CHO cells stably expressing hERG
# human ether-à-go-go-related gene (hERG) potassium channel, sequence (Q12809 whole entry, looked up): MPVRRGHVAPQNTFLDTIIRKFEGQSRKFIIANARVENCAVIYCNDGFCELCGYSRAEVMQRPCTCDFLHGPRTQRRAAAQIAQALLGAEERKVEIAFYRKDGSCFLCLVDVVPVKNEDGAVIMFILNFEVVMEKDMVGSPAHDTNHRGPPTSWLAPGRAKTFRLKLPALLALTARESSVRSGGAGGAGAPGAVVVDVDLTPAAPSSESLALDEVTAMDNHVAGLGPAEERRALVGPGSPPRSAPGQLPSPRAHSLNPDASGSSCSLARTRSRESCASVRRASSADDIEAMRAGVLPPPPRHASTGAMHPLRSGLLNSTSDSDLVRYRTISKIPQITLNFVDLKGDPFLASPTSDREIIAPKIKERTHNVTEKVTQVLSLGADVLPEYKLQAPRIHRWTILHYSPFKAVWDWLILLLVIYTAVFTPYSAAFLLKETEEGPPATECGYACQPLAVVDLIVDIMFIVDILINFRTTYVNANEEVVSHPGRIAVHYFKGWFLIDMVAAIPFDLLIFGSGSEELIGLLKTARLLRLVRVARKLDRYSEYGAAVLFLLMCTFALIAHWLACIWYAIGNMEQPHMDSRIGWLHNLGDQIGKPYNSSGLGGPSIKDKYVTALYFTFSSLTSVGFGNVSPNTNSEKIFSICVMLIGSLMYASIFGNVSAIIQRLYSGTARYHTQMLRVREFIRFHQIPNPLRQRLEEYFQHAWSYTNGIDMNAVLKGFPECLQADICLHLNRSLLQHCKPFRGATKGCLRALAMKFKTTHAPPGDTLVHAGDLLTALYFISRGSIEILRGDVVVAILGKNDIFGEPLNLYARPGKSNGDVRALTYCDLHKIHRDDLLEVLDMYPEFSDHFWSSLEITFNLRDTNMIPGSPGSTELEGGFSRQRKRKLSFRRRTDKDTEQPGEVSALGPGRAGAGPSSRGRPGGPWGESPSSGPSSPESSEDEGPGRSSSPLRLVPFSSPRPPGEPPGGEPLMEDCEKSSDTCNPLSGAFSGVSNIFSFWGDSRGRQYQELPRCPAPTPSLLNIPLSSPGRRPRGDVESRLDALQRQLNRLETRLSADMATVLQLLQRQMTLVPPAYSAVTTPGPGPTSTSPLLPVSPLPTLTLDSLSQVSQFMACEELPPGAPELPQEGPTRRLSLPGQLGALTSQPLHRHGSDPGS
row,SMILES,"hERG current change (%, negative = inhibition) at 1uM [%]"
1,CN1CCN(NC(=O)c2cccc(C(F)(F)F)c2)CC1,9.29
2,COc1ccc(-c2[nH]ncc2/C=N\NC(=O)c2cccs2)cc1OC,4.31
3,CC(=O)N(C1=C(O)c2ccccc2C(=O)C1=O)C1CCCCC1,2.84
4,COc1ccc2c(c1)[C@@H]1[C@H](CO2)[C@H](c2ccccc2)[C@]2(C)C(=O)NCC(=O)N12,10.2
5,CCN(CC)C(=S)SCC(=O)c1ccc(Br)cc1,12
6,NCCCC[C@@H](C(=O)NCCCCCCCCCCC(=O)N1CCNCC1)n1cc(CCCC(=O)O)nn1,3.28
7,Cc1sc(NC(=S)NC(=O)CCc2ccccc2)c(C(N)=O)c1C,10.5
8,CCOC(=O)c1sc(NC(=O)CCCn2nc([N+](=O)[O-])c(Cl)c2C)c(C(=O)OCC)c1C,7.97
9,CC12CC[C@H]3[C@@H](CCC4(O)C[C@H](O)CCC34/C=N/NC(=O)c3ccc(O)cc3)C1(O)CCC2C1=CC(=O)OC1 (stereo partly drawn),11.5
10,Cc1ccn2cc(CCNS(=O)(=O)c3ccc(F)c(C(F)(F)F)c3)nc2c1,6.15
11,Cc1nn(-c2ccccc2)c(Oc2ccccc2)c1C=O,5.95
12,CCCCOc1ccccc1NC(=O)CSc1nnnn1C(C)(C)C,-3.47
13,COc1ccc(-n2nnnc2SCC(=O)NCCc2ccc(OC)c(OC)c2)cc1,2.56
14,Cc1cccc(NC(=O)c2ccccn2)c1C,-0.137
15,COC(=O)c1ccc(CC(C(=O)c2ccccc2)N(C)C)cc1.Cl (stereo not drawn),12.8
16,O=c1[nH][nH]c(C(F)(F)F)c1C=Nc1ccc(Cl)cc1,-0.612
17,CC(C)(C)n1nc2c(c1NC(=O)Cc1cccs1)CSC2,13.1
18,Nc1nonc1-n1nnc(C(=O)N/N=C/c2cccnc2)c1-c1cccs1,5.01
19,CCc1ccc(C(=O)/C=C/c2cnn(C)c2C)s1,-13
20,CCNC(=S)NNC(=O)c1csc(C(C)C)c1,7.61
21,O=C(N/N=C/c1ccc2ncccc2c1)c1cccc([N+](=O)[O-])c1,15.3
22,COC(=O)c1ccc(CSc2ccc3nnc(-c4ccccn4)n3n2)o1,-36.5
23,O=C1NC(c2cc(Cl)cc([N+](=O)[O-])c2O)Nc2ccccc21 (stereo not drawn),12

row,SMILES,"hERG current change (%, negative = inhibition) at 1uM [%]"
1,CCc1sc(C(=O)N2CCN(c3ccc(F)cc3)CC2)cc1C,14.4
2,Cn1c(=O)c2c([nH]c(=S)n2CCCc2ccccc2)n(C)c1=O,14.9
3,O=C(CCC1CCCCC1)NCc1ccncc1,9.48
4,Cc1cccc(CN(C)C)c1OC(=O)N(C)C.Cl,-15
5,Cc1ccc(C(=O)CC(C(=O)O)P(=O)(c2ccccc2)c2ccccc2)cc1 (stereo not drawn),18
6,CC(C)(Oc1ccc(Cl)cc1)C(=O)O/N=C(\N)c1ccncc1,5.96
7,COc1ccc(CN2CCN(C(=O)c3ccccc3F)CC2)c(OC)c1OC,12.1
8,CC(=O)Nc1ccc(NC(=O)C(C)OC(=O)C(C)SCC(=O)Nc2ccc(F)cc2)cc1 (stereo not drawn),13.2
9,C=CCNc1cc(=O)n(Cc2ccccc2)c(=O)[nH]1,12.2
10,COc1cc2c(C#N)c(N3CCCC3)nc(N)c2c(N)n1,11.2
11,COc1ccc(N2CCN(C(=O)CN3C(=O)NC4(CCCCCC4)C3=O)CC2)cc1,10.7
12,O=C(COc1ccccc1)N1CCN(CC2CC3C=CC2C3)CC1.O=C(O)C(=O)O (stereo not drawn),6.34
13,CCOc1ccc(N(CC(=O)Nc2nccs2)S(=O)(=O)c2c(C)[nH]c(=O)[nH]c2=O)cc1,14.6
14,CCN(CC)C(=S)Nc1ccc(OC)cc1,26
15,CCCN1CNC(=S)N(c2ccc(C)cc2C)C1,12.5
16,CCOC(=O)N/N=C(/C)c1ccc(N2C(=O)C3CCCCC3C2=O)cc1 (stereo not drawn),5.01
17,CC(C)CCN(C(=S)Nc1cccc(F)c1)C1CCN(C(C)C)CC1,-7.78
18,CC(C)(C)OC(=O)N1CCN(C(=O)Cn2cc(CCO)nn2)CC1,27.7
19,O=C(Oc1ccccc1)c1ccc(-n2cnnn2)cc1,15.5
20,CN1CCN(C(=O)CSc2nc3c(c(=O)n(C)c(=O)n3C)n2C)CC1,11
21,COC(=O)CN(c1ccccc1F)S(=O)(=O)c1ccccc1,-3.91
22,CC(C)C(NC(=O)OCc1ccccc1)C(=O)NCc1ccc(C(=O)O)cc1 (stereo not drawn),-3.16
23,Cc1ccc(C(=O)N2CCCC(N3CCN(c4cccc(C(F)(F)F)c4)CC3)C2)s1 (stereo not drawn),0.145

row,SMILES,"hERG current change (%, negative = inhibition) at 1uM [%]"
1,Cc1ccc(NC(=O)c2cccc(C(=O)Nc3ccc(C)c(C)c3)n2)cc1C,5.55
2,CC1=C(C(=O)OCc2ccccc2)C(c2cccc(Cl)c2Cl)NC(=O)N1CCCCCC(=O)O (stereo not drawn),8.61
3,COC1CCCCC1Nc1ccc(C)c(C)c1 (stereo not drawn),2.22
4,COc1ccc(N(C)C(=O)c2cc3c(s2)-c2c(C)cccc2OC3)c(OC)c1,5.05
5,CN(/N=C/c1ccccc1)C(=S)c1ccccc1,12.1
6,Cc1csc2nc(CCNS(=O)(=O)c3cccs3)cn12,11
7,CCOC(=O)c1[nH]c2ccccc2c1NC(=O)COC,1.11
8,CC(C)=C(NC(=O)c1ccccc1Br)C(=O)NCCc1nc2ccccc2[nH]1,7.69
9,CCc1noc(C)c1C(=O)Nc1cc(Cl)ccc1N1CCOCC1,-4.33
10,Clc1ccc2c(NCc3cccs3)ncnc2c1,12.6
11,CCCNc1c(NS(=O)(=O)c2ccc(Br)cc2)c(=O)oc2ccccc12,-9.71
12,Cc1nonc1NC(=O)N1CCCC1,-14.4
13,COc1ccc(C(=O)CC(=O)C(=O)Nc2ccc(C)c(C)c2)cc1,-3.98
14,CCN(CC)CCCNC(=O)CSc1nc(-c2cccs2)cc(C(F)(F)F)n1,1.86
15,O=C(N/N=C/c1ccc(N2CCOCC2)cc1)c1ccc(O)cc1,15.9
16,C=CCN(CC=C)CCCOc1ccccc1C(=O)OC.O=C(O)C(=O)O,-48.9
17,CCCOc1ccc(NC(=O)c2c(-c3ccccc3)noc2C)cc1,-6.18
18,O=C(c1cccnc1)N1CCN(S(=O)(=O)c2ccc(Cl)cc2)CC1,1.21
19,O=C(NCCc1ccccc1)c1ccccc1SCC(=O)N1CCCC1,-27.3
20,COc1ccc(C(=O)NCCN2CCCC2)cc1OC.Cl,2.79
21,Cc1ccc2cc(CCNC(=O)c3c(-c4ccccc4Cl)noc3C)c(=O)[nH]c2c1,-3.85
22,COc1ccc(/C=N/N2C(=O)C3C4C=CC(CC4)C3C2=O)c(OC)c1 (stereo not drawn),2.62
23,COc1ccc2cc3cc(C(=O)NCc4ccc5c(c4)OCO5)oc3nc2c1,5.52

row,SMILES,"hERG current change (%, negative = inhibition) at 1uM [%]"
1,COc1cc(C(=O)NCCCN2CCCC2=O)cc(OC)c1OC,-2.13
2,O=C(NCCCNC(=O)c1cnccn1)c1ccc(Cl)c(Cl)c1,4.02
3,CC(C)(C)c1ccc(Cn2nc(CC(=O)O)c3ccccc3c2=O)cc1,18
4,CN(C)C(=O)N1CCC(C(=O)NCc2ccc(F)cc2Cl)CC1,12.7
5,COC(=O)c1c(NC(=O)CN2CCN(c3ccccc3Cl)CC2)sc(C)c1C,1.85
6,Cc1cccc(C2c3[nH]c4ccccc4c3CCN2Cc2cnn(-c3ccc(F)cc3)c2)n1 (stereo not drawn),12.2
7,OC1=C(O)c2nc3cc(C(F)(F)F)ccc3nc21,1.28
8,Cc1ccccc1NS(=O)(=O)c1cc2c3c(c1)CC(=O)N3CCC2,7.86
9,OC(COC(c1ccccc1)c1ccccc1)CN1CCc2ccccc2C1 (stereo not drawn),-75.3
10,Cc1ccccc1N1CC(C(=O)Nc2ccncc2)CC1=O (stereo not drawn),1.72
11,Cc1oc(-c2ccccc2F)nc1CS(=O)CC(=O)NCc1cccs1 (stereo not drawn),6.87
12,O=C(CCN1C(=O)/C(=C\c2ccc(F)cc2)SC1=S)Nc1ccccc1,6.78
13,CCC(C(=O)NNC(=O)c1cnccn1)c1ccccc1 (stereo not drawn),11.4
14,O=C(Cc1ccc(NC2=NC3CS(=O)(=O)CC3S2)cc1)N1CCN(c2ccc(F)cc2)CC1 (stereo not drawn),15.8
15,CC(=O)C1=C(O)C(=O)N(Cc2ccccc2)C1c1ccc(N(C)C)cc1 (stereo not drawn),16.1
16,Cc1cc(C)c(C(=O)COC(=O)c2cc([N+](=O)[O-])ccc2NCCO)cc1C,1.03
17,CC(C)N(C(=O)COC(=O)c1ccc(Cl)c(S(N)(=O)=O)c1)C(C)C,10.8
18,Cc1cc(CNC(=O)c2cccc([N+](=O)[O-])c2C)c2ccccc2n1,-24.3
19,Cc1cc(-c2nn(C)c(=O)c3ccccc23)cc(C)c1O,7.52
20,CCOC(=O)NN1C(=O)c2ccccc2NC1c1ccc(OC)cc1OC (stereo not drawn),10.2
21,O=C(Nc1ccc([N+](=O)[O-])cn1)c1cc(-c2cccc(Br)c2)nc2ccccc12,12.3
